Source: PubChem BioAssay AID624296 (National Center for Advancing Translational Sciences (NCATS), 2012)
Values joined by “and” are separate entries in the source; they are usually repeats but may differ in a detail not shown here. Equal entries are not always repeated. Hit rate of the full screen: of about 350,000 compounds, about 9,900 (2.8%) were called active. Inconclusive means that the source gave no clear call. Such entries were picked first, then a sample of the others. Calls follow the shape of the dose curve; as a rule, active = well fitted activation curve with a large enough effect; inconclusive = small, poorly fitted or top-dose-only effect; inactive = no such curve, though single readings can be large or run the other way. Where the call is inconclusive, the potency comes from a doubtful curve fit.
Potency is read from the fitted curve at half-maximal effect; tags tell the direction and shape of the fitted curve.

Assay: A quantitative high throughput screen for small molecules that induce DNA re-replication in MCF 10a normal breast cells. Also: nearly all actives have a fitted effect of over 50% in size. As to activity, positive = re-replication: % of control where 0% means no effect.
Details: MCF 10A DNA re-replication, Hoechst nuclear intensity, 48 h; activity, positive = re-replication: at 46.1 µM (top of the series)
For `COc1ccc(CCNC2=C(Cl)C(=O)N(Cc3ccccc3)C2=O)cc1OC`, the Potency was inconclusive: 23.1 µM [activator, partial curve, poor fit].
In the case of `CCCCSc1nc2sc3c(c2c(=O)n1-c1ccc(C)cc1)CCN(C)C3`, the Potency is reported as inconclusive: 29.1 µM [activator, single point].
For `CCOC(=O)C1=C(C)NC(=S)NC1c1ccco1` (stereo unspecified), the Potency was inconclusive: 25.9 µM [activator, single point].
In the case of `C=CCNC(=S)N/N=C(\C)c1ccccn1`, the activity, positive = re-replication is reported as inconclusive: 78.1% [activator].
With `COC(=O)c1c(C(=O)OC)c(-c2ccccc2)n2c1CS(=O)C2` (stereo unspecified) the Potency was inconclusive: 16.4 µM [activator, partial curve].
With `COc1ccc(CNC(=O)C2CC(c3cccc([N+](=O)[O-])c3)=NO2)cc1` (stereo unspecified) the Potency was active: 9.2 µM.
In the case of `O=C(CSc1nc(C2CC2)nc2ccccc12)N1CCCCC1`, the Potency is reported as “inactive”.
With `Cc1c(-c2ccccc2)c(=O)oc2cc(O)ccc12` the Potency was inconclusive: 23.1 µM [activator, single point].
With `O=C(c1cccnc1)N1CCN(C/C=C/c2ccccc2)CC1` the Potency was “inactive”.
In the case of `Cc1ccc(NC(=O)N2CCCn3c(SCC(=O)c4ccccc4)nnc32)cc1`, the Potency is reported as “inactive”.
For `Cc1ccc(C(O)(C(=O)NN(C(=O)c2ccccc2)c2ccccc2)c2ccc(C)cc2)cc1`, the Potency was “inactive”.
In the case of `CCOC(=O)c1ccc(C#Cc2ccc3c(c2)C(C)(C)CCS3)nc1`, the Potency is reported as inconclusive: 33.5 µM [activator, single point].
For `CC(C)N1C(=O)C(Cc2nc3ccccc3c(=O)n2-c2ccccc2)c2ccccc21` (stereo unspecified), the Potency was “inactive”.
In the case of `CCCCNCCOCCSc1ccc(Cl)cc1`, the Potency is reported as inconclusive: 20.6 µM [activator, partial curve, poor fit].
With `CCc1ccc2nc(NC(=O)C3CCN(c4ncnc5sc(C)c(C)c45)CC3)sc2c1` the Potency was inconclusive: 29.1 µM [activator, single point].
With `Cc1ccc(-n2c(SCC(=O)NCc3ccco3)nc3sc(C)c(C)c3c2=O)cc1` the Potency was inconclusive: 22.4 µM [activator, partial curve, poor fit].
With `CCC(C)N(C(=O)Cn1c(=O)cnc2ccccc21)C1CCS(=O)(=O)C1` (stereo unspecified) the Potency was “inactive”.
In the case of `CCOc1ccccc1C1C2=C(COC2=O)Nc2cc3c(cc21)OCO3` (stereo unspecified), the Potency is reported as inconclusive: 1.84 µM [activator, full curve, poor fit].
In the case of `COc1cccc(N(CC(=O)NCc2ccco2)C(=O)CCC(=O)Nc2nccs2)c1`, the Potency is reported as inconclusive: 2.31 µM [activator, partial curve, poor fit].
With `COCCNC(=S)N=Nc1c(O)[nH]c2ccc([N+](=O)[O-])cc12` the Potency was “inactive”.
For `O=C(CSCc1cccc(Br)c1)N/N=C/c1ccc2c(c1)OCO2`, the Potency was inconclusive: 29.1 µM [activator, single point].
For `O=C(c1ccc(F)cc1F)N1CCN(S(=O)(=O)c2ccc3c(c2)OCCO3)CC1`, the Potency was “inactive”.
For `COc1ccc([C@H]2CC(=O)C=C(c3ccccc3C(F)(F)F)C2)cc1`, the Potency was inconclusive: 20.6 µM [activator, single point].
With `O=C(c1ccccc1)N1CCN(C(=O)c2nn3c(C(F)(F)F)cc(-c4ccccc4)nc3c2Br)CC1` the Potency was inconclusive: 32.6 µM [activator, partial curve, poor fit].
For `O=C(N/N=C/c1ccc([N+](=O)[O-])cc1)c1cc(C2CC2)nc2ccccc12`, the Potency was inconclusive: 29.1 µM [activator, single point].
In the case of `CC(=O)/C(N=Nc1ccc2c(c1)OCO2)=C(\C)O`, the Potency is reported as inconclusive: 32.6 µM [activator, partial curve, poor fit].
In the case of `CCN(CC)CCOC(=O)c1ccc(NC(=O)CCCN2C(=O)S/C(=C/c3ccc(OC)cc3)C2=S)cc1`, the Potency is reported as inconclusive: 20.6 µM [activator, partial curve, poor fit].
In the case of `Cc1cccc(N2CCN(C(=O)c3ccc(NC(=O)CC4SC(N5CCCC5)=NC4=O)cc3)CC2)c1C` (stereo unspecified), the Potency is reported as inconclusive: 29.1 µM [activator, partial curve, poor fit].
In the case of `CCCCNC(=O)COc1ccccc1[N+](=O)[O-]`, the Potency is reported as “inactive”.
In the case of `N#Cc1ccc(Nc2nc(-c3ccc(O)cc3O)cs2)cc1C(F)(F)F`, the Potency is reported as inconclusive: 16.4 µM [activator, single point].
With `OCC1(CCOc2ccccc2)CCN(Cc2cn[nH]c2-c2ccc(F)cc2)CC1` the Potency was “inactive”.
For `COc1ccc(S(=O)(=O)N2CCOCC2)cc1NC(=O)CSc1nc(C)c(C)c(C)n1`, the Potency was “inactive”.
With `CCCC1=NN(c2ccc([N+](=O)[O-])cc2)C(=O)/C1=C\N(C)C` the Potency was inconclusive: 29.1 µM [activator, single point].
In the case of `CCOc1ccc(S(=O)(=O)N2CCCC(C(=O)N3CCN(CC)CC3)C2)cc1Cl` (stereo unspecified), the Potency is reported as inconclusive: 23.1 µM [activator, single point].
With `O=C(O)c1ccc(NC(=S)NC(=O)c2ccc(-c3ccccc3)cc2)cc1` the Potency was inconclusive: 16.4 µM [activator, single point].
For `c1ccc2c(c1)CCN(C1CCCCC1)C2`, the Potency was inconclusive: 29.1 µM [activator, single point].
For `C=CCn1c(C23CC4CC(CC(C4)C2)C3)n[nH]c1=S`, the Potency was inconclusive: 7.31 µM [activator, partial curve, poor fit].
In the case of `Cc1ccc(C(O)(C(=O)NNc2ccc3ccccc3n2)c2ccc(C)cc2)cc1`, the Potency is reported as inconclusive: 29.1 µM [activator, single point] and inconclusive: 411 nM [activator, full curve, poor fit].
For `O=C(c1cccc(Cl)c1)N1CCC(N2CCC(C(=O)N3CCOCC3)CC2)CC1`, the Potency was inconclusive: 4.61 µM [activator, full curve].
For `O=C(NCCO)c1ccc(-c2nnc(Nc3ccc(O)cc3)c3ccccc23)cc1`, the Potency was inconclusive: 23.1 µM [activator, partial curve, poor fit].
With `Cc1ccc(Cc2cnc(NC(=O)/C(C#N)=C/c3ccc(-c4ccccc4[N+](=O)[O-])o3)s2)cc1` the Potency was inconclusive: 13 µM [activator, single point].
For `CC(C)c1ccc(NCCC(=O)c2cccs2)cc1`, the Potency was inconclusive: 25.9 µM [activator, single point].
In the case of `Cc1nn(Cc2ccccc2Cl)c2sc(C(=O)Nc3ccccc3N3CCOCC3)cc12`, the Potency is reported as active: 9.2 µM.
With `Nn1cnc2c(c1=O)C1(CCCCC1)Cc1ccccc1-2` the Potency was inconclusive: 10.3 µM [activator, partial curve, poor fit].
In the case of `Cc1cccc(-n2ncc3c(NCc4ccccc4)ncnc32)c1`, the Potency is reported as active: 6.51 µM.
With `O=C(Nc1ccc(-c2nnn(CC(=O)N3CCN(C(=O)c4ccco4)CC3)n2)cc1)c1ccc(F)cc1` the Potency was inconclusive: 29.1 µM [activator, single point].
For `Cc1cc(N/N=C/c2ccccc2Cl)nc(NCc2ccccc2)n1`, the Potency was active: 16.4 µM.
For `COc1cc(/C=C2\SC(=O)NC2=O)ccc1Oc1ccc([N+](=O)[O-])cn1`, the Potency was inconclusive: 0.731 µM [activator, full curve, poor fit].
With `CC(=O)N1c2ccc(S(=O)(=O)N3CCC(C(=O)Nc4ccc(C)cn4)CC3)cc2CC1C` (stereo unspecified) the Potency was “inactive”.
With `Cc1cc(C)c(NC(=O)C2CCN(C(=O)c3ccco3)CC2)c(C)c1` the Potency was “inactive”.
For `CCOc1ccccc1N1CCN(C(=O)NCc2ccc(Cl)cc2)CC1`, the Potency was inconclusive: 18.4 µM [activator, partial curve, poor fit].
In the case of `O=C(CSc1nnc(-c2ccncc2)o1)Nc1cccc(Cl)c1`, the Potency is reported as “inactive”.
For `O=C(Nc1ccc2oc(-c3ccccc3F)nc2c1)c1ccc2c(c1)OCCO2`, the Potency was inconclusive: 0.0052 µM [activator, full curve, poor fit].
In the case of `CC12CCC3C(CCC4CC(O)CCC43C)C1CC(O)C2` (stereo unspecified), the Potency is reported as inconclusive: 23.1 µM [activator, single point].
With `Cc1ccc(C(=O)c2c(NC(=O)CSc3nnc(N)s3)sc3c2CCCC3)cc1` the Potency was inconclusive: 29.1 µM [activator, single point].
With `Brc1ccc(-c2csc(/N=C/N3CCCC3)n2)cc1` the Potency was inconclusive: 18.4 µM [activator, partial curve, poor fit].
For `Cc1ccc(C(=O)COC(=O)CNC(=O)C(c2ccccc2)c2ccccc2)cc1[N+](=O)[O-]`, the Potency was “inactive”.
For `CCOc1ccccc1N1CCN(C(=O)c2cc(S(=O)(=O)N3CCCCC3)ccc2C)CC1`, the Potency was “inactive”.
In the case of `COc1ccc(S(=O)(=O)N(C(C)=O)c2ccc(OC(C)=O)c3ccccc23)cc1[N+](=O)[O-]`, the Potency is reported as inconclusive: 5.17 µM [activator, full curve, poor fit].
In the case of `COc1ccccc1N1CCN(C(=O)c2cc3cc(C)ccc3[nH]2)CC1`, the Potency is reported as inconclusive: 4.61 µM [activator, single point].
In the case of `CN(C)C(=O)COC(=O)c1ccc(S(=O)(=O)NCc2ccco2)cc1`, the Potency is reported as “inactive”.
For `Cc1ccccc1C(=O)NC1CC2CCCC(C1)N2C(=O)Nc1ccccc1` (stereo unspecified), the Potency was “inactive”.
With `COc1ccc(-c2csc(N(CC3CCCO3)C(=O)c3cccs3)n2)cc1` (stereo unspecified) the Potency was inconclusive: 14.6 µM [activator, partial curve, poor fit].
With `CCOc1ccc(Nc2cc(C)nc(-n3nc(C)cc3C)n2)cc1` the Potency was inconclusive: 0.562 µM [activator, full curve, poor fit].
For `O=C(CCN1C(=O)/C(=C/c2ccccc2)SC1=S)NCCc1ccc(O)cc1`, the Potency was inconclusive: 11.6 µM [activator, partial curve].
With `c1nc(N2CCC3(CC2)OCCO3)c2[nH]cnc2n1` the Potency was inconclusive: 29.1 µM [activator, partial curve, poor fit].
